Test in all cases: co-IP; GFP-trap from lysates (TNTE buffer: 20 mM Tris pH 7.4, 150 mM NaCl, 1% Triton X-100, 5 mM EDTA; 2 h at 4 °C) of CrARFIP2KO cells stably expressing EGFP, EGFP-ARFIP2, EGFP-AH-BAR (BAR) or EGFP-ARFIP chimera; western blot
The target in assay [1] is T1, EGFP-ARFIP chimera (N-terminal portion of ARFIP2 (1–92) fused with the BAR domain of ARFIP1 (93–341)) (UniProt P53365).
T1 sequence: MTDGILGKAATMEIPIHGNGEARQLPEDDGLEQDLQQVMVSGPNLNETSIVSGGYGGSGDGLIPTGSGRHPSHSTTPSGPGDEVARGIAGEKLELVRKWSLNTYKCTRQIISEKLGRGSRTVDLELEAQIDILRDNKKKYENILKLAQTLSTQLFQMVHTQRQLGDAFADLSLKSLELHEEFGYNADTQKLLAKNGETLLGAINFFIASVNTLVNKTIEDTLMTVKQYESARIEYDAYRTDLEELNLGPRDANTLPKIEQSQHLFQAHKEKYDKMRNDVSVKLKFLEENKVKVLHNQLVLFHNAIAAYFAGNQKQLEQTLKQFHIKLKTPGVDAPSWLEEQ

By UniProt entry, the sequences of proteins in these tests, tags left out.
UniProt Q92572: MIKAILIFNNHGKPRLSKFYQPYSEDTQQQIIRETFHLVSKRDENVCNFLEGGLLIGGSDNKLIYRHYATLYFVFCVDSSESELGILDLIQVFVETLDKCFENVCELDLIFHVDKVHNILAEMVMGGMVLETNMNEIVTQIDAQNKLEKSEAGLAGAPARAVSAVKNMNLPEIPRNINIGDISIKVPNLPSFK
UniProt Q9BTU6: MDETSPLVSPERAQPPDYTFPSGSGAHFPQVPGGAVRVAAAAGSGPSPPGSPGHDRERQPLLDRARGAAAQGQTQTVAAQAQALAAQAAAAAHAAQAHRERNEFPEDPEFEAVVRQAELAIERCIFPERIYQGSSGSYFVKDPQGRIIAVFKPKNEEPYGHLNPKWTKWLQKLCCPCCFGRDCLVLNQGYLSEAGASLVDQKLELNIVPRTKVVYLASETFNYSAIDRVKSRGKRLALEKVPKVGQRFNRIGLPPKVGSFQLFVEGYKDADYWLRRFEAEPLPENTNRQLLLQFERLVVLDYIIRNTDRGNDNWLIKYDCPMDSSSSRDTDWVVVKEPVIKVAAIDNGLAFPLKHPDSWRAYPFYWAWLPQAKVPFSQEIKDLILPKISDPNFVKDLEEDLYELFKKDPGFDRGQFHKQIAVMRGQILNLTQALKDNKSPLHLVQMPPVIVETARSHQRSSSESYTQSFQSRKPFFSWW

Assay [2] has as its target T2, EGFP-ARFIP2 (ADP ribosylation factor interacting protein 2), full-length wild type (UniProt P53365).
T2 sequence: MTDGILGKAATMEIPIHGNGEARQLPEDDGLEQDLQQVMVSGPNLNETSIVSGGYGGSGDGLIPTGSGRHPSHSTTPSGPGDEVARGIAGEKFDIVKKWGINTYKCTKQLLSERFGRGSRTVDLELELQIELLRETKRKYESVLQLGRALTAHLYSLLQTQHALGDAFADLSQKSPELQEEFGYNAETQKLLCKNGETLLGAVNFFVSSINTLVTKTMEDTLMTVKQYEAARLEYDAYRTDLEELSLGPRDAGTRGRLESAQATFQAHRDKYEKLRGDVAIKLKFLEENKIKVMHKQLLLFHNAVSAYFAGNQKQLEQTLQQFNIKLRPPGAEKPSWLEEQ

Assay [3] has as its target T3, EGFP-ARFIP2 BAR domain (109–341) (UniProt P53365).
T3 sequence: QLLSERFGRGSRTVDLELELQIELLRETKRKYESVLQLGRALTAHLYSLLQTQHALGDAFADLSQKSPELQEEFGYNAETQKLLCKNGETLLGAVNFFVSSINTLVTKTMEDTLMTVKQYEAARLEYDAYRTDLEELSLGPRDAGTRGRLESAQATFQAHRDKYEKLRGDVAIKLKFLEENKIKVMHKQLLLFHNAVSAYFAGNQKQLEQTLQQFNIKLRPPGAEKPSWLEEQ

These are yes or no findings as the source states them, for the method shown. Binding seen in cells or lysates may run through a third protein. Some entries that bind do so weakly or less than the wild type. Sequences can lack the tags named with a protein.

Consider “AP3S1 (AP-3 sigma subunit) (from UniProt Q92572 1-193)”, for which the binding result is given as “binds” in assay [1], “binds” in assay [2] and “no binding” in assay [3].

Take “PI4K2A (phosphatidylinositol 4-kinase-2a) (from UniProt Q9BTU6 1-479) (enzyme)”: the binding entry in assay [1] and in assay [2] was “binds” throughout.

B1: OSBPL9 (oxysterol-binding protein-like protein 9) (protein, UniProt Q96SU4 1-736)
chain: MASIMEGPLSKWTNVMKGWQYRWFVLDYNAGLLSYYTSKDKMMRGSRRGCVRLRGAVIGIDDEDDSTFTITVDQKTFHFQARDADEREKWIHALEETILRHTLQLQGLDSGFVPSVQDFDKKLTEADAYLQILIEQLKLFDDKLQNCKEDEQRKKIETLKETTNSMVESIKHCIVLLQIAKDQSNAEKHADGMISTINPVDAIYQPSPLEPVISTMPSQTVLPPEPVQLCKSEQRPSSLPVGPVLATLGHHQTPTPNSTGSGHSPPSSSLTSPSHVNLSPNTVPEFSYSSSEDEFYDADEFHQSGSSPKRLIDSSGSASVLTHSSSGNSLKRPDTTESLNSSLSNGTSDADLFDSHDDRDDDAEAGSVEEHKSVIMHLLSQVRLGMDLTKVVLPTFILERRSLLEMYADFFAHPDLFVSISDQKDPKDRMVQVVKWYLSAFHAGRKGSVAKKPYNPILGEIFQCHWTLPNDTEENTELVSEGPVPWVSKNSVTFVAEQVSHHPPISAFYAECFNKKIQFNAHIWTKSKFLGMSIGVHNIGQGCVSCLDYDEHYILTFPNGYGRSILTVPWVELGGECNINCSKTGYSANIIFHTKPFYGGKKHRITAEIFSPNDKKSFCSIEGEWNGVMYAKYATGENTVFVDTKKLPIIKKKVRKLEDQNEYESRSLWKDVTFNLKIRDIDAATEAKHRLEERQRAEARERKEKEIQWETRLFHEDGECWVYDEPLLKRLGAAKH
Consider B1, for which the binding entry in assay [1] and in assay [2] was “binds” each time.

The values above are taken from publication PMC7617826.
